Experimental data from patent publication US11912781B2, “Humanized complement 5A receptor 1 antibodies and methods of use thereof” (VISTERRA, INC., priority 2021, dated 2024).
Where two headings read alike, the source gives them in different places.

Legend:
[1] = Pharmacokinetics in human C5aR1 knock-in mice; conditions: mouse, in vivo
Method: 5 mg/kg of exemplary monospecific and biparatopic antibodies were injected intravenously into Tg32 mice. The amount of the antibody in the serum was evaluated over a period of 500 hours. […] FIG. 16B-16D show the stability of the anti-C5aR1 antibodies in the serum of 5 different mice for 500 hours. […] The tetravalent antibodies have slightly lower persistence in serum as compared to the monospecific antibody. Motavizumab was used as a control.
Target-Mediated Drug Disposition (TMDD) is evident for both exemplary C5aR1 antibodies with modified Fc domains. TMDD is the phenomenon in which a drug binds with high affinity to its pharmacological target site (such as a receptor) to such an extent that this affects its pharmacokinetic (PK) characteristics. The target binding and subsequent elimination of the drug-target complexes could affect both drug distribution and elimination, and result in nonlinearity of PK in a dose-dependent manner.
The target binding and subsequent elimination of the drug-target complexes could affect both drug distribution and elimination, and result in nonlinearity of PK in a dose-dependent manner. FIG. 30A-30F show antibody persistence was dose-dependent. […] FIG. 30F is in silico graphical representation of isotype control antibody over a period of 500 hours at a concentration of 20 mg/Kg. […]

Macrophages = assay: Kinetic binding assay on macrophages
Source text: (§1) Exemplary kinetic assays for binding to C5aR1 expressing cells are shown in (FIG. 17B). Kinetic measures were fitted after a 2-3 dose association phase followed by dissociation.

human neutrophils = assay: Binding to human neutrophils; conditions: two antibody preparations, read-out: EC50 of human neutrophil binding
neutrophils [2] = assay: Kinetic binding assay on neutrophils
Source text: as §1

U937-C5aR1 cells = assay: Binding to U937-C5aR1 cells; conditions: two antibody preparations
hC5aR1 mice = assay: C5a-induced neutropenia in transgenic human C5aR1 mice; format: in vivo, mouse
Method: Briefly, five groups of hC5aR1 mice were evaluated for inhibition of neutropenia. In the first group, 5 hC5aR1 mice were injected with PBS (vehicle), intravenously. […] In the fourth group, 5 hC5aR1 mice were injected with non-C5aR1 antibody (Motavizumab) intravenously at a dose of 20 mg/kg. In the fifth group, 5 hC5aR1 mice were injected with avacopan at a dose of 30 mg/kg, intravenously. One hour after injection of the PBS, exemplary antibodies, motavizumab or avacopan, 0.1 mg/kg of human C5a was injected into the hC5aR1 mice. The blood was collected after 1 min, 5 min and 2 hr after injection of human C5a. The percent chance in neutrophils and average change in neutrophils were calculated in all three groups and are shown in FIG. 15B-15C. Neutrophil cell counts were assessed by gating CD45+/CD11b+/Ly6G+ cells.
The experimental details of this mouse in vivo assay are described in Example 11.
Table 19 summarizes the dosage regimen of the antibodies being tested, and the bleed times to determine neutropenia.

CD11b = assay: Inhibition of CD11b expression in neutrophils; format: cell-based, human; conditions: 100 nM C5a
Source text: CD11b, an integrin receptor, is mobilized to the surface of neutrophils in response to C5a activation and mediates intravascular crawling prior to neutrophil transmigration. CD11 is involved in numerous adhesion-related associations between cells such as monocytes, macrophages, natural killer (NK) cells, and granulocytes.
The experimental details of this determining CD11 expression are described in Example 5.

neutrophils [3] = assay: ROS production by neutrophils (Cellular ROS Detection Assay Kit); format: cell-based; conditions: ANCA− and ANCA+ groups
Method: ROS production by neutrophils was detected with a Cellular ROS Detection Assay Kit (Abcam) following manufacturer's manual. The RBC-lysed WB cells were diluted to the concentration of 3×10^5 cells in 100 mL buffer. Pre-treatment with ROS inhibitor (N-acetyl-L-cysteine) was carried out for the negative control group at 37° C., 5% CO2 for 30 minutes. ROS detection antibody then added into the antibody cocktail for flow cytometry-based detection of neutrophil ROS production. ROS inducer (pyocyanin) was added to all groups and incubated for 30 minutes prior to acquisition on the cytometer.
The experimental details of this determining ROS production are described in Example 7.

[4] = Stability at 4° C., RT, 37° C. and freeze/thaw (HMW aggregates vs intact antibody); format: physicochemical
Method: Both monospecific and biparatopic antibodies were incubated at 4° C. for up to 14 days. After one thaw cycle at 37° C., the amount of intact antibodies were evaluated by gel filtration, native PAGE and dynamic light scattering (DLS).

U937-C5aR1 = assay: Kinetic binding assay on U937-C5aR1 cells
Source text: as §1

C5aR1-U937 stable cells = assay: Chemotaxis of C5aR1-U937 stable cells (Boyden chamber); format: cell-based; conditions: 1 nM, 3.16 nM and 10 nM antagonist, increasing C5a
Method: First, C5aR1-U937 stable cells were seeded into the top chamber of a 96 Transwell plate in the presence of no antibody (antagonist), or of 1, 10, or 100 nM each antibody (antagonist). The bottom chamber contained a half-log titration of C5a (chemoattractant) ranging from 10^−6 to 10^−9.5 M. The top and the bottom chambers were separated by a membrane. C5a is expected to induce migration of U937 cells. However, use of a C5aR1 antagonist is expected to inhibit this migration. Increasing concentration of the exemplary antibodies were used to determine a dose-dependent inhibition of chemotaxis. Further, increasing concentration of the chemoattractant (C5a) was used to determine if the inhibition of chemotaxis was surmountable by using high concentration of C5a. In a parallel setting, a known C5aR1 inhibitor, Avacopan was also used to evaluate the inhibition of chemotaxis of neutrophils and surmountability of the chemotaxis in the presence of excess C5a.
The experimental details of this determining neutrophil chemotaxis are described in Example 4.

C5aR2 = biological target: T1, C5aR2 (Homo sapiens, UniProt Q9P296); assay: ELISA binding specificity on immobilized C5aR2 VLP
T1 sequence (Q9P296 1-337): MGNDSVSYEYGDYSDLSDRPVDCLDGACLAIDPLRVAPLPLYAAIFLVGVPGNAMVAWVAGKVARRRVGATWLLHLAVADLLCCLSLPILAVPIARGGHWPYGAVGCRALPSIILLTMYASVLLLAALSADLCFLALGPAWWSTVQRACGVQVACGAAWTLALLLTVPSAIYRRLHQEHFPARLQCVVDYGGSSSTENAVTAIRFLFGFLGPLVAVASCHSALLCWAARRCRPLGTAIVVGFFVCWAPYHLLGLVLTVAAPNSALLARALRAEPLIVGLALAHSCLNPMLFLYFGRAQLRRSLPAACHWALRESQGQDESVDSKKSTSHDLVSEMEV
Method: The specificity of the C5aR1 antagonistic antibodies was determined by measuring the affinity of anti-C5aR1 antibodies to C5aR2. C5aR2 VLP were immobilized to a MaxiSorp ELISA plate at a concentration of 30 μg/mL and incubated overnight at 4° C. The following morning, plates were washed 3 times with 1× PBS and plates were blocked for 30 minutes with 100 μL of PBSA (1× PBS with 3% BSA). A serial titration of anti-C5aR antibody was performed in the presence of PBSA and incubated for 1 hour at room temperature. Plates were washed 6 times with PBSA. Anti-human-HRP was diluted in PBSA, added to all wells, and incubated for 45 minutes at room temperature. Plates were washed 6 times with PBS. TMB substrate was added to all wells and incubated for 10 minutes before the addition of stop solution (0.1 M sulfuric acid). Absorbance at 450 nm was measured on a standard plate reader. A four-parameter curve fit was used to generate the EC50 value of the antibody titration in nM.
The specificity of the Fc-modified C5aR1 antagonistic antibodies was determined by measuring the affinity of anti-C5aR1 antibodies to C5aR2. This was determined as described in Example 1.

B1: c2137-e1711: tetravalent biparatopic anti-C5aR1 antibody, Fab-Fc-linker-scFv; heavy chain SEQ ID NO: 12, light chain SEQ ID NO: 13 (antibody)
heavy: QVQLVQSGAEVKKPGASVKVSCKASGYTFTNYWMHWVRQAPGQGLEWMGYLNPSSGYTKYAQKFQGRVTMTRDTSTSTVYMELSSLRSEDTAVYYCTRSGGDNYGNPYYFDRWGQGTTVTVSSASTKGPSVFPLAPCSRSTSESTAALGCLVKDYFPEPVTVSWNSGALTSGVHTFPAVLQSSGLYSLSSVVTVPSSSLGTKTYTCNVDHKPSNTKVDKRV[human IgG4 Fc with S228P (EU numbers) omitted here]GGGGSEIVLTQSPATLSLSPGERATLSCRSSQSLVHSNGNTYLNWYQQKPGQAPRLLIYKVSNRLSGIPARFSGSGSGTDFTLTISSLEPEDFAVYYCSQSTHVPYTFGCGTKLEIKGGGGSGGGGSGGGGSGGGGSEVQLVESGGGLIQPGGSLRLSCAASGFTFNAYAMSWVRQAPGKCLEWVSSISTGGNTYYADSVKGRFTISRDNSKNTLYLQMNSLRAEDTAVYYCTRGYQRFSGFAYWGQGTLVTVSS
light: DVQMTQSPSSLSASVGDRVTITCRASQSIVHSNGNTYLHWYQQKPGKAPKFLIYKVSNRFSGVPSRFSGSGSGTDFTLTISSLQPEDFATYYCAQSTLVPLTFGQGTKLEIKRTVAAPSVFIFPPSDEQLKSGTASVVCLLNNFYPREAKVQWKVDNALQSGNSQESVTEQDSKDSTYSLSSTLTLSKADYEKHKVYACEVTHQGLSSPVTKSFNRGEC
Target-Mediated Drug Disposition (TMDD) [1]: TMDD observed | EC50 (Macrophages): ~0.5 nM | Kd (Macrophages): ~0.6 nM | EC50 (human neutrophils; listed as c2137-e1711 Prep 1): 1.07 nM | EC50 (human neutrophils; listed as c2137-e1711 Prep 2): 1.05 nM | EC50 (neutrophils [2]): ~1 nM | Kd (neutrophils [2]): ~2 nM | EC50 (U937-C5aR1 cells; listed as c2137-e1711 Prep 1): 2.47 nM | EC50 (U937-C5aR1 cells; listed as c2137-e1711 Prep 2): 2.25 nM | inhibition of neutropenia (hC5aR1 mice; hC5aR1 mice, 20 mg/kg IV): Complete inhibition | IC50 (CD11b): 1.47 nM | inhibition of ANCA induced ROS production (neutrophils [3]): inhibited ANCA induced ROS production | % HMW ([4]; 37 c. T1 day): 8.1% | % Main ([4]; 37 c. T1 day): 91.9% | % HMW ([4]; F/T 1 cycle): 8.1% | % Main ([4]; F/T 1 cycle): 91.9% | % HMW ([4]; T = 0 week, 2-8 C.): 8.5% | % Main ([4]; T = 0 week, 2-8 C.): 91.5% | % HMW ([4]; T = 1 week, 2-8 C.): 8.4% | % Main ([4]; T = 1 week, 2-8 C.): 91.6% | % HMW ([4]; T = 1 week, RT): 8.4% | % Main ([4]; T = 1 week, RT): 91.6% | % HMW ([4]; T = 2 week, 2-8 C.): 8.3% | % Main ([4]; T = 2 week, 2-8 C.): 91.7% | % HMW ([4]; T = 2 week, RT): 8.3% | % Main ([4]; T = 2 week, RT): 91.7% | Kd (U937-C5aR1; U937-C5aR1): ~1 nM | EC50 (U937-C5aR1; U937-C5aR1 cells): ~1 nM

B2: c2137-e1711-Fcmod: biparatopic antibody with modified IgG4 Fc (F234V, L235E, D265G, S228P); heavy chain SEQ ID NO: 71, light chain SEQ ID NO: 72 (antibody)
heavy: QVQLVQSGAEVKKPGASVKVSCKASGYTFTNYWMHWVRQAPGQGLEWMGYLNPSSGYTKYAQKFQGRVTMTRDTSTSTVYMELSSLRSEDTAVYYCTRSGGDNYGNPYYFDRWGQGTTVTVSSASTKGPSVFPLAPCSRSTSESTAALGCLVKDYFPEPVTVSWNSGALTSGVHTFPAVLQSSGLYSLSSVVTVPSSSLGTKTYTCNVDHKPSNTKVDKRV[human IgG4 Fc with S228P F234V L235E D265G (EU numbers) omitted here]GGGGSEIVLTQSPATLSLSPGERATLSCRSSQSLVHSNGNTYLNWYQQKPGQAPRLLIYKVSNRLSGIPARFSGSGSGTDFTLTISSLEPEDFAVYYCSQSTHVPYTFGCGTKLEIKGGGGSGGGGSGGGGSGGGGSEVQLVESGGGLIQPGGSLRLSCAASGFTFNAYAMSWVRQAPGKCLEWVSSISTGGNTYYADSVKGRFTISRDNSKNTLYLQMNSLRAEDTAVYYCTRGYQRFSGFAYWGQGTLVTVSS
light: DVQMTQSPSSLSASVGDRVTITCRASQSIVHSNGNTYLHWYQQKPGKAPKFLIYKVSNRFSGVPSRFSGSGSGTDFTLTISSLQPEDFATYYCAQSTLVPLTFGQGTKLEIKRTVAAPSVFIFPPSDEQLKSGTASVVCLLNNFYPREAKVQWKVDNALQSGNSQESVTEQDSKDSTYSLSSTLTLSKADYEKHKVYACEVTHQGLSSPVTKSFNRGEC
inhibition of chemotaxis in C5aR1-U937 stable cells (C5aR1-U937 stable cells): more potently inhibited chemotaxis than avacopan and anti-C5aR1 control Ab | binding to C5aR2 (C5aR2): did not display affinity for C5aR2 | inhibition of neutropenia at low dose (hC5aR1 mice; hC5aR1 knock in mice, even at 0.1 mg/kg doses IV, vs vehicle): potently inhibited neutropenia
